Test results: the supplement of paper PMC4604168 (melanoma cell lines)
The list shows a part of the results. Single values are uncertain, as repeats are few or missing.

The compounds below were run on WM1716 (assay: cell count relative to DMSO control; melanoma cells; higher = more viable cells). Settings: library dose: standard library concentration; 72 h.
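Further: cells treated in 1,536-well plates, then fixed and DAPI-stained, with nuclei counted from automated high-throughput microscope images.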

| SMILES | cell count [%] |
| --- | --- |
| COCC[n+]1c2c(n(Cc3cnccn3)c1C)C(=O)c1ccccc1C2=O + N#Cc1c(O)c2c(-c3ccc(-c4ccccc4O)cc3)csc2[nH]c1=O [A769662] (first compound 0.002 µM, partner dose 10 µM) | 65.3 |
| Nc1cccc2c1CN(C1CCC(=O)NC1=O)C2=O (stereo not drawn) [lenalidomide] + O=C(Nc1ccccc1)c1cc([N+](=O)[O-])ccc1Cl [GW9662] (first compound 5 µM, partner dose 10 µM) | 102 |
| O=C(CCCCCCC(=O)Nc1ccccc1)NO [vorinostat] + CC(C)CCN1c2nc(Nc3cc(F)c(O)c(F)c3)ncc2N(C)C(=O)C1C [BID1870] (first compound 0.4 µM, partner dose 1 µM) | 76.4 |
| OCc1c[nH]c2ccccc12 [Indole-3-carbinol] + COCC[n+]1c2c(n(Cc3cnccn3)c1C)C(=O)c1ccccc1C2=O [YM155] (first compound 4 µM, partner dose 0.002 µM) | 77.9 |
| COCC[n+]1c2c(n(Cc3cnccn3)c1C)C(=O)c1ccccc1C2=O + O=c1cc(-c2cccc3c2Sc2ccccc2S3)oc(N2CCOCC2)c1 [KU55933] (first compound 0.002 µM, partner dose 5 µM) | 63.2 |
| Nc1cccc2c1CN(C1CCC(=O)NC1=O)C2=O (stereo not drawn) [lenalidomide] + O=C(CCCCCCC(=O)Nc1ccccc1)NO [vorinostat] (first compound 5 µM, partner dose 0.4 µM) | 76.4 |
| OCc1c[nH]c2ccccc12 [Indole-3-carbinol] + Cc1cc(N2CCOCC2)cc2[nH]c(-c3c(NC[C@@H](O)c4cccc(Cl)c4)cc[nH]c3=O)nc12 [BMS536924] (first compound 4 µM, partner dose 1 µM) | 109 |
| Clc1ccc(Nc2nnc(Cc3ccncc3)c3ccccc23)cc1 [vatalanib] + NC(=O)Nc1cc(-c2cccc(F)c2)sc1C(=O)N[C@H]1CCCNC1 [AZD7762] (first compound 10 µM, partner dose 0.1 µM) | 69.2 |
